# Test results from ChEMBL document CHEMBL1201862, “PubChem BioAssay data set” (2004).
#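 Step 1: Grow cells in 96-well plates. Step 2: Expose to compound for 48 hours at 5 concentrations. Step 3: Interpolate endpoints linearly; if unreached, use highest concentration. GI50: concentration for 50% inhibition of growth.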 Active and inactive are the calls of the source. Cut-off read from the data, not from the text of the source: active = GI50 up to about 1.1 µM and inactive = higher.
# System: NCI-H322M
# Assay: NCI anticancer screen, dose series, 48 h
row,SMILES,GI50
1,COc1cc([C@@H]2c3cc4c(c(O)c3C[C@H]3COC(=O)[C@@H]32)OCO4)cc(OC)c1OC [BETA-PELTATIN A],active: 0.015 µM
2,CC(=O)OCC1OC(n2cnc3nc(Br)[nH]c(=O)c32)C(OC(C)=O)C1OC(C)=O (stereo unspecified),inactive: > 100 µM
3,CN1N=CSC12C(=O)N(c1ccccc1)C(=O)N2c1ccccc1 (stereo unspecified),inactive: > 100 µM
4,Cc1ccc(NC(Nc2ccc(C)cc2C)=C(/C=C(\Cl)[N+](=O)[O-])[N+](=O)[O-])c(C)c1,inactive: 15.7 µM
5,Cc1cc2c(cc1C)[n+]([O-])c(C(=O)C/C(=N/NC(=O)CC#N)C(=O)Nc1ccccc1C(F)(F)F)c(C)[n+]2[O-],inactive: 62.1 µM
6,COC(=O)/C(=C1\OC(=O)C(c2ccc(Cl)cc2)=C1O)c1ccc(Cl)cc1,inactive: 31.8 µM
7,O=C1C/C(=C\O)C(=O)c2ccccc2N1,inactive: > 100 µM
8,CS/C(Nc1ccccc1)=C1\C(=O)N(c2ccccc2)N=C1C,inactive: > 100 µM
9,O=C1N(C2CCCCC2)C(=O)N1C1CCCCC1,active: 0.435 µM
10,COC(=O)c1cc2c(cc1O)[C@@H](NC(C)=O)CCc1cc(OC)c(OC)c(OC)c1-2,active: 0.042 µM
11,CSC(SC)=C(C(=O)c1ccc(Cl)cc1)n1c(=O)sc2cc(Br)ccc21,inactive: > 100 µM
12,NCC1CCN(c2nc3ccccc3c3c2CCCC3)CC1,inactive: 6.62 µM
13,O=c1[c-](-c2ccccc2)[se]c(-c2ccccc2)[n+]1-c1ccccc1,inactive: 4.08 µM
14,CN1CCN(CN2C(=O)C3C4C=CC(C3C2=O)C2C(=O)N(CN3CCN(C)CC3)C(=O)C42)CC1 (stereo unspecified),inactive: > 100 µM
15,c1cc2c(cc1C1=NCCN1)c1cc(C3=NCCN3)ccc1n2CC1CCCCC1,inactive: 10.6 µM
16,CN(C)CCNc1ccccn1,inactive: > 100 µM
17,O=C1C(Cl)=C(N2CCN(CCOCCO)CC2)C(=O)c2ncccc21,inactive: > 10 µM
18,O=C(O)CN1CCN(CC(=O)N2CCN(C(=O)OCc3ccccc3)CC2)CCN(CC(=O)O)CCN(CC(=O)N2CCN(C(=O)OCc3ccccc3)CC2)CC1,inactive: > 100 µM
19,CCOP(=O)(OCC)C(Cc1cn(S(=O)(=O)c2ccc(C)cc2)cn1)C(=O)O (stereo unspecified),inactive: > 100 µM
20,CCSc1ncnc2c(C3OC(CO)C(O)C3O)nsc12 (stereo unspecified),inactive: > 100 µM
21,O=C1c2c(F)c(F)c(F)c(F)c2SC2=NCCN12,inactive: 16.9 µM
22,Cc1cccc(/C=N/NC(=S)NCCc2ccccn2)n1,inactive: 45.5 µM
23,O=C1OCc2c1cc1cc3c(cc1c2-c1ccc2c(c1)OCO2)OCO3.O=C1OCc2cc3cc4c(cc3c(-c3ccc5c(c3)OCO5)c21)OCO4,inactive: 36.1 µM

row,SMILES,GI50
1,COC(=O)[C@@]12OC[C@]34[C@H]([C@@H](O)[C@@H]1O)[C@@]1(C)CC(=O)C(OC(C)=O)=C(C)[C@@H]1C[C@H]3OC(=O)[C@H](OC(=O)C=C(C)C)[C@@H]24,inactive: 2.43 µM
2,COc1ccc2c(c1)[n+]([O-])c1cc(C#N)ccc1[n+]2[O-],active: 0.212 µM
3,O=C1CC(Nc2ccccc2)c2c(Cl)sc(Cl)c21 (stereo unspecified),inactive: 5.68 µM
4,COc1nc2ccc(COc3ccc(C(=O)O)cc3)cc2nc1OC,inactive: > 100 µM
5,Cc1ccc(Nc2nc(C)c(C(/C=C/c3ccc4c(c3)OCO4)=N/Nc3ccc([N+](=O)[O-])cc3[N+](=O)[O-])s2)c([N+](=O)[O-])c1,inactive: 62.8 µM
6,O=C1[C@@H]2C(c3ccccc3[N+](=O)[O-])=[N+](c3ccccc3)O[C@@H]2C(=O)N1c1ccc(Cc2ccc(N3C(=O)[C@H]4C(c5ccccc5[N+](=O)[O-])=[N+](c5ccccc5)O[C@H]4C3=O)cc2)cc1,inactive: > 100 µM
7,Oc1ccc(Br)cc1/C=N/c1cccc(C(F)(F)F)c1,inactive: 27.9 µM
8,N=C(N)NS(=O)(=O)c1ccc(Nc2c3ccccc3nc3c(C(=O)NC(CO)(CO)CO)cccc23)cc1,inactive: 29.7 µM
9,Cc1ccccc1-n1c(=O)nc2n(-c3ccc(C(C)(C)C)cc3)c3ccccc3cc-2c1=O,inactive: 19.5 µM
10,CC#CC1C2CCCC1(CSc1ccccc1)NC(=O)O2 (stereo unspecified),inactive: > 100 µM
11,O=C1CCCCCCCCCCC(=O)C2CCOCCOCCOCCC1Cc1cccc(n1)C2,inactive: > 100 µM
12,CCCC(=O)Nc1cc(/C=C/C(=O)N2CC(CCl)c3c2cc([N+](=O)[O-])c2ccccc32)n(C)c1 (stereo unspecified),inactive: > 100 µM
13,CN(O)C(=O)CCCC(=O)NCC(C)(C)CNC(=O)CCCC(=O)N(C)O,inactive: > 100 µM
14,CCOC(=O)c1nc2ccccc2nc1Oc1ccc(F)cc1,inactive: > 100 µM
15,C/C(=N\c1ccc(Cl)cc1)c1ccncc1,inactive: > 100 µM
16,CN(C)c1ccc(/C=C(\NC(=O)c2ccccc2)c2nn(C)c(=O)o2)cc1,inactive: > 100 µM
17,Clc1cc(Cl)cc(Nc2nc3ccccc3nc2-c2cccs2)c1,inactive: 28.5 µM
18,COC(=O)C(C(=O)C(=O)Nc1cccc(C)c1)C1=NC(N)SS1 (stereo unspecified),inactive: > 100 µM
19,COc1c(C)cc(O)cc1C=O,inactive: > 100 µM
20,COc1ccc(Nc2c[nH]c(=O)[nH]c2=O)cc1,inactive: > 100 µM
21,Cc1ccc(-n2nnc3c(NNc4ccccc4)n[nH]c(=O)c32)cc1,inactive: > 100 µM
22,COC(=O)[C@H](Cc1c[nH]c2ccccc12)NP(=O)(O)OC[C@H]1O[C@@H](n2cc(C)c(=O)[nH]c2=O)C[C@@H]1N=[N+]=[N-],inactive: > 100 µM
23,C[C@]12CCC3c4ccc(O)cc4CC[C@H]3C1CC(=O)NC2=O (stereo partly specified),inactive: > 10 µM

row,SMILES,GI50
1,CC1=NN(C(=O)c2ccc(Cl)cc2)C(=O)/C1=C/c1ccccc1O,inactive: > 100 µM
2,OC1(C(O)(c2ccc(-c3ccccc3)cc2)c2ccc(-c3ccccc3)cc2)CCCCC1,inactive: > 100 µM
3,CC1=CC(O)(c2ccccc2)C(N2CCOCC2)N1O (stereo unspecified),inactive: > 100 µM
4,N#CCC(=O)N/N=C1/C(=O)NC(=O)C(=O)C1c1nc2ccccc2s1 (stereo unspecified),inactive: > 100 µM
5,Nc1nc(N)c(C2=CCN(Cc3ccccc3)CC2)c(=O)[nH]1,inactive: > 100 µM
6,Cc1ccc(NC(=O)CC(=O)N2N=C(N3CCCCC3)CC2c2ccccc2)cc1 (stereo unspecified),inactive: > 100 µM
7,CC(NS(=O)(=O)c1ccc(Cl)cc1)C(=O)O (stereo unspecified),inactive: > 100 µM
8,COc1cc(C=O)c(-c2cc3c(cc2C=O)OCO3)c(OC)c1OC,inactive: 83.4 µM
9,CCOC(=O)c1cnc2[nH]ccn2c1=O,inactive: > 10 µM
10,COc1ccc(OCC(=O)O)c2c1CCC(C(C)C)C2=O (stereo unspecified),inactive: > 100 µM
11,CCOP(=O)(OCC)/C(C#N)=C/c1ccco1,inactive: > 100 µM
12,CCOC(=O)CN1C(=O)c2cc([N+](=O)[O-])cc3cc([N+](=O)[O-])cc(c23)C1=O,inactive: > 100 µM
13,O=C(O)c1nnsc1-c1ccc(-c2snnc2C(=O)O)cc1,inactive: 46.8 µM
14,CCN(CCCl)c1cc(CN(C)C)cc(NC(=O)c2ccc(C(=O)Nc3cc(CN(C)C)cc(N(CC)CCCl)c3)cc2)c1,active: 0.33 µM
15,CCCCNC(=S)Nc1nc(C(=O)NNS(=O)(=O)c2ccccc2)cs1,inactive: 31.7 µM
16,Cn1c(=O)c2nc(CCCCc3nc4ccccc4[nH]3)[nH]c2n(C)c1=O,inactive: > 100 µM
17,Nc1ccc(C(=O)O)c2[nH]c3ccccc3c(=O)c12,inactive: > 100 µM
18,CSc1nc(=S)[nH]c2c1c(C)nn2-c1ccccc1,inactive: 20.1 µM
19,Fc1ccc(OCc2nc3cc(C(F)(F)F)ccc3nc2-c2ccccc2)cc1,inactive: > 100 µM
20,CCCCCC[N+](C)(C)Cc1ccc(C[N+](C)(C)CCCCCC)cc1,inactive: 3.64 µM
21,O=[N+]([O-])c1ccc(-c2noc(-c3ccccc3)c2C2=NCCN2)cc1,inactive: > 100 µM
22,CCOC(=O)c1c(Cl)nc2ccccc2c1N=[N+]=[N-],inactive: 26.7 µM
23,c1ccc(/C(=N\Nc2nc3ccccc3s2)c2ccccn2)cc1,inactive: 1.66 µM

row,SMILES,GI50
1,COc1cccc(Cc2cc(=O)c3ccc(C)nc3[nH]2)c1,inactive: > 100 µM
2,CCN1C(NN)=NS(=O)(=O)c2ccccc21,inactive: > 100 µM
3,OCC(O)C(Cl)CCl (stereo unspecified),inactive: > 100 µM
4,c1cc2ccc3cc4ncccc4c4ccc(c1)c2c34,inactive: 12.4 µM
5,CC(C)(C)OC(=O)NC(Cc1ccccc1)OCc1ccccc1 (stereo unspecified),inactive: 20.4 µM
6,Nc1ccc(C2=N/C(=C\c3cccc(N)c3)C(=O)O2)cc1,inactive: > 100 µM
7,C=C1OC(=O)[C@]2([C@@H](/C=C/C)C=CC(=O)[C@H]2O)[C@@H]1O,inactive: > 100 µM
8,COc1cc(CN[C@H]2CCc3cc(OC)c(OC)c(OC)c3-c3ccc(SC)c(=O)cc32)cc(OC)c1,active: 0.039 µM
9,COC1OC2COC(=O)c3cc(O)c(O)c(O)c3-c3c(cc(O)c(O)c3O)C(=O)OC2C(O)C1O (stereo unspecified),inactive: > 100 µM
10,C[C@]12CC[C@H]3[C@@H](CCC4=CC(=O)CC[C@@H]43)[C@@H]1CC[C@]2(O)C(N)=O,inactive: > 100 µM
11,CC1CC2(S(=O)(=O)c3ccccc3)ON1CC2S(=O)(=O)c1ccccc1 (stereo unspecified),inactive: > 100 µM
12,OC(CC1SCCCS1)c1ccccc1 (stereo unspecified),inactive: > 100 µM
13,COc1ccc(C[C@@H]2NC[C@@H](O)[C@@H]2OC(C)=O)cc1,active: 0.0191 µM
14,Nc1nc(SCCC/C=C/I)nc2c1ncn2C1OC(COP(=O)(O)O)C(O)C1O (stereo unspecified),inactive: > 100 µM
15,CC(=O)N1C(C(=O)NN2CCOCC2)CSC1c1ccccc1 (stereo unspecified),inactive: > 100 µM
16,O=C1/C(=C/c2ccc(Cl)cc2)Sc2scc(-c3cccc([N+](=O)[O-])c3)[n+]21,inactive: 14.9 µM
17,CC(NNC(=O)c1ccncc1)c1ccc(F)cc1 (stereo unspecified),inactive: > 100 µM
18,Clc1ccc2c(NC3CCC(N4CCCCC4)CC3)ccnc2c1 (stereo unspecified),inactive: 20.4 µM
19,O=C(c1ccccc1)c1nnn(Cc2ccccc2Cn2nnc(C(=O)c3ccccc3)c2C(=O)c2ccccc2)c1C(=O)c1ccccc1,inactive: > 100 µM
20,COc1cccc(/C=C/c2cc(OC)c(OC)c(OC)c2)c1,inactive: 62.4 µM
21,Cn1cc2c(n1)c(N/N=C/c1ccccc1)nn1nnnc21,inactive: > 100 µM
22,COc1cc(OC)c(Oc2cccc(OC)c2OC)c(OC)c1,inactive: > 100 µM
